# Reference: the BET-seq Pho4 binding data (Le et al. 2018)
# Some of the results follow. The energies were worked out here from pooled read counts, against the library average; single values are noisy.
# Target: T1, Pho4 (S. cerevisiae) (UniProt P07270)
# T1 sequence: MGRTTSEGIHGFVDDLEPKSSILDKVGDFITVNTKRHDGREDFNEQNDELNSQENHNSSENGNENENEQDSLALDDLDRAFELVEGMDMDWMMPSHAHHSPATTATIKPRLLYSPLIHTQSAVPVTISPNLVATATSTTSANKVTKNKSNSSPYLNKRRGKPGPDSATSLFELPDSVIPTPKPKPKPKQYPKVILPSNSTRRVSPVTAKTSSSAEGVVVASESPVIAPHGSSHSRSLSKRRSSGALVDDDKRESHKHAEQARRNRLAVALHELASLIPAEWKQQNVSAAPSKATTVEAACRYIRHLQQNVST
# Experiment: relative binding free energy (BET-seq); higher = weaker binding
# Conditions: reference: library average
row,Sequence,relative binding free energy
1,GGGGGCACGTGGGGGC,-0.1 kcal/mol
2,TGCATCACGTGGTGCT,0 kcal/mol
3,TTTATCACGTGTGTGT,0.21 kcal/mol
4,GGCTTCACGTGAAGAT,0.57 kcal/mol
5,TTGAGCACGTGTCATG,-0.18 kcal/mol
6,TTAATCACGTGAGGAA,0.37 kcal/mol
7,GTTGTCACGTGAATGA,0.42 kcal/mol
8,AGGTACACGTGGGACG,-0.17 kcal/mol
9,GTGCACACGTGGTTGT,0.04 kcal/mol
10,AGACACACGTGTGGTG,-0.02 kcal/mol
11,TTTGACACGTGCGTGA,-0.12 kcal/mol
12,GGGCTCACGTGGTAGG,0.22 kcal/mol
13,CGGGTCACGTGTGCGA,-0.04 kcal/mol
14,CATGGCACGTGTAAGG,0.01 kcal/mol
15,GATTGCACGTGTAGGC,0.07 kcal/mol
16,GGTGTCACGTGCCGTT,-0.04 kcal/mol
17,GTTTACACGTGTGGCT,0.29 kcal/mol
18,TGTGGCACGTGCGTAA,-0.18 kcal/mol
19,CTTTGCACGTGTGTAC,0.03 kcal/mol
20,AAGCTCACGTGGTATG,0.16 kcal/mol
21,TTTTCCACGTGTGCTG,0.04 kcal/mol
22,ATGTACACGTGTTCGG,-0.03 kcal/mol
23,GAGTACACGTGGTTAT,0.08 kcal/mol

row,Sequence,relative binding free energy
1,TGGCGCACGTGGAGTG,-0.12 kcal/mol
2,TTGTGCACGTGTCGGT,0.12 kcal/mol
3,AAATGCACGTGAAGGT,0.25 kcal/mol
4,GTGGTCACGTGGCCGG,0.03 kcal/mol
5,TGCAACACGTGTGTGG,-0.06 kcal/mol
6,TATATCACGTGTTAAG,0.13 kcal/mol
7,CGGGTCACGTGGGGTA,-0.02 kcal/mol
8,GTTAACACGTGGTATT,-0.03 kcal/mol
9,TTTGGCACGTGTTAAG,-0.09 kcal/mol
10,TTGTACACGTGATTTG,0.19 kcal/mol
11,GAGCACACGTGGGGGG,0.08 kcal/mol
12,CGTATCACGTGGGTGA,-0.14 kcal/mol
13,ATAATCACGTGTTTGG,0.14 kcal/mol
14,TTTATCACGTGGGACT,0.03 kcal/mol
15,ATAGGCACGTGGGCAT,-0.31 kcal/mol
16,TGAATCACGTGTTTGC,0.13 kcal/mol
17,GGTTACACGTGCTGGC,0.16 kcal/mol
18,TTATGCACGTGGGACA,-0.15 kcal/mol
19,AAGGTCACGTGGTGAT,0.05 kcal/mol
20,TGCTGCACGTGTATTT,0 kcal/mol
21,ATGAGCACGTGGTTGC,-0.06 kcal/mol
22,ATTTACACGTGGCAGT,-0.02 kcal/mol
23,TTATGCACGTGTGAGC,-0.07 kcal/mol

row,Sequence,relative binding free energy
1,GATGACACGTGAAGTG,0.26 kcal/mol
2,TTACTCACGTGATGGA,0.37 kcal/mol
3,AGCTTCACGTGTTGGG,0.25 kcal/mol
4,TTTGTCACGTGATTAT,0.31 kcal/mol
5,GCGGGCACGTGTTATA,0.07 kcal/mol
6,GGATGCACGTGATTGG,0.17 kcal/mol
7,TAAAGCACGTGAGTTA,0.34 kcal/mol
8,TGTGTCACGTGCATTC,0.09 kcal/mol
9,TGAGTCACGTGGATAG,0.18 kcal/mol
10,GGGTCCACGTGTAGGC,0.05 kcal/mol
11,TAGCACACGTGAGGGT,0.21 kcal/mol
12,AGTTTCACGTGGAGCT,0.12 kcal/mol
13,GTCGGCACGTGAGTGG,0.24 kcal/mol
14,ATGGACACGTGCGTGG,-0.06 kcal/mol
15,TGATGCACGTGTCGTA,0.04 kcal/mol
16,AAGGTCACGTGGAGGG,0.06 kcal/mol
17,TTAAGCACGTGGCAGG,-0.09 kcal/mol
18,AAAGGCACGTGGGAGG,-0.15 kcal/mol
19,TTGGTCACGTGTCGTA,0.22 kcal/mol
20,TTAGGCACGTGTCGAG,-0.14 kcal/mol
21,GGGAGCACGTGGTCCT,0.07 kcal/mol
22,GTGGTCACGTGCGAAG,0.2 kcal/mol
23,TGTTGCACGTGTCCTG,0 kcal/mol

row,Sequence,relative binding free energy
1,TGTCTCACGTGATGTT,0.37 kcal/mol
2,AGGAGCACGTGTTAAG,0.04 kcal/mol
3,ATTGGCACGTGTAGGC,-0.21 kcal/mol
4,AGATACACGTGGGTAG,-0.19 kcal/mol
5,AAGTCCACGTGGAGGG,-0.11 kcal/mol
6,GTTGACACGTGGCTCG,0.16 kcal/mol
7,GTTAACACGTGATGCT,0.15 kcal/mol
8,TAGGGCACGTGGTTAC,-0.13 kcal/mol
9,ATGTTCACGTGTAGAG,0.25 kcal/mol
10,TTTAACACGTGTAGTG,0.03 kcal/mol
11,AGAGACACGTGGGGGG,-0.11 kcal/mol
12,TGTATCACGTGGTTAT,0.02 kcal/mol
13,TTTAACACGTGTAAGT,0.2 kcal/mol
14,TTGTGCACGTGTCCTT,-0.1 kcal/mol
15,ACGTGCACGTGTTGTC,-0.04 kcal/mol
16,GGTCGCACGTGTTGGG,0.1 kcal/mol
17,GTAGTCACGTGAAGGC,0.36 kcal/mol
18,TCGTGCACGTGAAGGT,0.13 kcal/mol
19,AGGAGCACGTGAGGGT,0.19 kcal/mol
20,GGCTACACGTGAAGGT,0.38 kcal/mol
21,AGGTACACGTGGATGA,0.1 kcal/mol
22,GTAAACACGTGGTTGT,0.05 kcal/mol
23,GTTAGCACGTGGTAGT,0.04 kcal/mol

row,Sequence,relative binding free energy
1,GGGGACACGTGAGTAT,0.24 kcal/mol
2,ATATGCACGTGCGGTG,-0.16 kcal/mol
3,CTGGTCACGTGAGCGG,0.16 kcal/mol
4,TTCTGCACGTGGGAGT,-0.07 kcal/mol
5,GGGGGCACGTGACGTG,0.07 kcal/mol
6,ATTGGCACGTGTTAGA,-0.02 kcal/mol
7,GGGAGCACGTGGACGT,-0.19 kcal/mol
8,ATGGTCACGTGACTAT,0.26 kcal/mol
9,GAGCTCACGTGGCGGG,0.31 kcal/mol
10,ATTAGCACGTGGAAGT,0.04 kcal/mol
11,ATGTGCACGTGTCAAG,0.01 kcal/mol
12,GTGGGCACGTGCGCGC,-0.29 kcal/mol
13,AGTGACACGTGAGTTG,0.26 kcal/mol
14,GGTAGCACGTGTGATA,-0.14 kcal/mol
15,TATGGCACGTGTGCTT,-0.05 kcal/mol
16,GTATGCACGTGAAGCG,0.23 kcal/mol
17,TTGTACACGTGTCGGG,0.13 kcal/mol
18,GGGCACACGTGTCGGT,0.17 kcal/mol
19,TAGGCCACGTGTATTT,-0.02 kcal/mol
20,GGGTGCACGTGCAGGA,-0.01 kcal/mol
21,ATTGTCACGTGTTAGA,0.15 kcal/mol
22,ATTATCACGTGTAGTT,0.19 kcal/mol
23,GCGATCACGTGGCGTT,0.31 kcal/mol
